Reference: patent US20240043487A1 (Innovent, published 2024)

Target: IL-21 receptor on the surface of T cells (HuT78 and HuT78-GFP-PD1 cells) (UniProt Q9HBE5 20-538; P31785 23-369)
Assay: cell-based or functional assay

UniProt Q9HBE5, sequence (Q9HBE5 20-538, chain 1 of 2): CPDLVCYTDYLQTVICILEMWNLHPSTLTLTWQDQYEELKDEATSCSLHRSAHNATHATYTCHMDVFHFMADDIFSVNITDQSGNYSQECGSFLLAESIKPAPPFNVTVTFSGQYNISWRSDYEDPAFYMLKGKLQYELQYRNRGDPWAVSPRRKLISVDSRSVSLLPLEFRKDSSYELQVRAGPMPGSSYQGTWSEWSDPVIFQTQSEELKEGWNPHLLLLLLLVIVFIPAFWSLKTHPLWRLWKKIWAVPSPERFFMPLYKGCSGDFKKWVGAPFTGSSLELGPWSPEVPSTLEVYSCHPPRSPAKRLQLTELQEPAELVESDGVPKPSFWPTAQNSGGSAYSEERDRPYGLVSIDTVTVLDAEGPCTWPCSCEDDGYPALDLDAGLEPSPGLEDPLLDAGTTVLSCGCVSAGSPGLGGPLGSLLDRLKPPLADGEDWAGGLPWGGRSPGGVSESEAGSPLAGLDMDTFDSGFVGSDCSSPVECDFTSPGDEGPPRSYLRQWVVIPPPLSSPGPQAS
UniProt Q9HBE5, sequence (P31785 23-369, chain 2 of 2, further chain): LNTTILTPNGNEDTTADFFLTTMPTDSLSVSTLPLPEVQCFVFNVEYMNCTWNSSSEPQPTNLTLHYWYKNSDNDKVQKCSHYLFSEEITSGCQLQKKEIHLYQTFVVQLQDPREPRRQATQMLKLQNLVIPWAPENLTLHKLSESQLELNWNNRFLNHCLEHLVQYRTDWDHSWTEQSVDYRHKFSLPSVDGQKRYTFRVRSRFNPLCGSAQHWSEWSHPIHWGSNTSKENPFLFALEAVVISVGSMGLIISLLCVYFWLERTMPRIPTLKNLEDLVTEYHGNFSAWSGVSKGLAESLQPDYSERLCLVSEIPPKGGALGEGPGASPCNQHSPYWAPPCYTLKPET

| EC50 (nM) of STAT3 phosphorylation, PD1-Positive HuT78-GFP-PD1 cells | Binder |
| --- | --- |
| 5.33 nM | fusion protein molecule 059 (Format 3: IL-21-027 linked via (G4S)3 to the C-terminus of the knob heavy chain of the anti-PD-1 antibody) (other) heavy 1: QVQLVQSGAEVKKPGSSVKVSCKASGGTFSSYAISWVRQAPGQGLEWMGLIIPMFDTAGYAQKFQGRVAITVDESTSTAYMELSSLRSEDTAVYYCARAEHSSTGTFDYWGQGTLVTVSSASTKGPSVFPLAPSSKSTSGGTAALGCLVKDYFPEPVTVSWNSGALTSGVHTFPAVLQSSGLYSLSSVVTVPSSSLGTQTYICNVNHKPSNTKVDKKV[letters of human IgG1 Fc with changes omitted][letters of about 150 residues omitted] heavy 2: QVQLVQSGAEVKKPGSSVKVSCKASGGTFSSYAISWVRQAPGQGLEWMGLIIPMFDTAGYAQKFQGRVAITVDESTSTAYMELSSLRSEDTAVYYCARAEHSSTGTFDYWGQGTLVTVSSASTKGPSVFPLAPSSKSTSGGTAALGCLVKDYFPEPVTVSWNSGALTSGVHTFPAVLQSSGLYSLSSVVTVPSSSLGTQTYICNVNHKPSNTKVDKKVEPKSCDKTHTCPPCPAPEAAGGPSVFLFPPKPKDTLMISRTPEVTCVVVDVSHEDPEVKFNWYVDGVEVHNAKTKPREEQYNSTYRVVSVLTVLHQDWLNGKEYKCKVSNKALPAPIEKTISKAKGQPREPQVCTLPPSRDELTKNQVSLSCAVKGFYPSDIAVEWESNGQPENNYKTTPPVLDSDGSFFLVSKLTVDKSRWQQGNVFSCSVMHEALHNHYTQKSLSLSPGK light: DIQMTQSPSSVSASVGDRVTITCRASQGISSWLAWYQQKPGKAPKLLISAASSLQSGVPSRFSGSGSGTDFTLTISSLQPEDFATYYCQQANHLPFTFGGGTKVEIKRTVAAPSVFIFPPSDEQLKSGTASVVCLLNNFYPREAKVQWKVDNALQSGNSQESVTEQDSKDSTYSLSSTLTLSKADYEKHKVYACEVTHQGLSSPVTKSFNRGEC |
| 0.831 nM | fusion protein molecule 061 (Format 3: IL-21-028 linked via (G4S)3 to the C-terminus of the knob heavy chain of the anti-PD-1 antibody) (other) heavy 1: QVQLVQSGAEVKKPGSSVKVSCKASGGTFSSYAISWVRQAPGQGLEWMGLIIPMFDTAGYAQKFQGRVAITVDESTSTAYMELSSLRSEDTAVYYCARAEHSSTGTFDYWGQGTLVTVSSASTKGPSVFPLAPSSKSTSGGTAALGCLVKDYFPEPVTVSWNSGALTSGVHTFPAVLQSSGLYSLSSVVTVPSSSLGTQTYICNVNHKPSNTKVDKKV[letters of human IgG1 Fc with changes omitted]GGGGSGGGGSGGGGSQGQDRHMIRMRQLIDIVDNLTNYVNDLVPEFLPAPEDVETNAEWSAFSCFQKAQLKSANTGNNERIINVSIKKLKRKPPSTNATTPSCDSYEKKPPKEFLERFKSLLQKMIHQHLSSRTHGSEDS heavy 2: QVQLVQSGAEVKKPGSSVKVSCKASGGTFSSYAISWVRQAPGQGLEWMGLIIPMFDTAGYAQKFQGRVAITVDESTSTAYMELSSLRSEDTAVYYCARAEHSSTGTFDYWGQGTLVTVSSASTKGPSVFPLAPSSKSTSGGTAALGCLVKDYFPEPVTVSWNSGALTSGVHTFPAVLQSSGLYSLSSVVTVPSSSLGTQTYICNVNHKPSNTKVDKKVEPKSCDKTHTCPPCPAPEAAGGPSVFLFPPKPKDTLMISRTPEVTCVVVDVSHEDPEVKFNWYVDGVEVHNAKTKPREEQYNSTYRVVSVLTVLHQDWLNGKEYKCKVSNKALPAPIEKTISKAKGQPREPQVCTLPPSRDELTKNQVSLSCAVKGFYPSDIAVEWESNGQPENNYKTTPPVLDSDGSFFLVSKLTVDKSRWQQGNVFSCSVMHEALHNHYTQKSLSLSPGK light: DIQMTQSPSSVSASVGDRVTITCRASQGISSWLAWYQQKPGKAPKLLISAASSLQSGVPSRFSGSGSGTDFTLTISSLQPEDFATYYCQQANHLPFTFGGGTKVEIKRTVAAPSVFIFPPSDEQLKSGTASVVCLLNNFYPREAKVQWKVDNALQSGNSQESVTEQDSKDSTYSLSSTLTLSKADYEKHKVYACEVTHQGLSSPVTKSFNRGEC |
